± gives the standard deviation. This is a selection; strong and weak results do not stand in their true shares.
test system: MIWI (PIWIL1) piRISC loaded with piRNA #1 (30 nt); experiment: pre-steady-state target cleavage rate (min^-1); MIWI and MILI are mouse PIWI proteins and EfPiwi is from a freshwater sponge; tags in brackets are library labels; higher = faster piRNA-guided slicing of the target; conditions: guide: piRNA #1 5'p-UGAGGUAGUAGGUUGUAUAGUAUCCAGAGG; auxiliary factor: 500 nM mouse GTSF1
How it was run: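 A transcribed, DNA-blocked target RNA library […] was incubated at 33 °C for 0–8 or 0–960 min with 1 nM active affinity-purified piRISC carrying one synthetic guide, in HEPES–potassium acetate buffer with or without 500 nM GTSF1 partner protein. Uncleaved targets were then sequenced and normalised to depth and to weakly complementary targets. Data from three trials were pooled, with k3 capped at 0.0001 min^-1, and a burst-and-steady-state fit yielded the pre-steady-state cleavage rate.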
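Further: 1 nM active piRISC with 0.1 nM target library at 33 °C single turnover.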

Sequence	pre-steady-state target cleavage rate
GGAGACCUAUCUUUACAACCUACUUCCUCA	0.0134 ± 0.0045
GGAGUGGAUAGUAUUCAACCUACUACCUCA	0.584 ± 0.064
GGAGAGGAUACUAUACAACAUACUACCUCA	0.386 ± 0.04
GGAGACCUAUGAUAUGUACCUAGUACCACA	< 0.0001
GGAGACCAUACAAUACAACCUACUACCUCA	0.972 ± 0.095
GGAGACCUUUCUAAACAACCUACUACCUCA	0.0719 ± 0.013
GGAGUGGAUUGAAUACAACCUACUACCUCA	0.202 ± 0.027
GGAGACCUUACCAUACAACCUACUACCUCA	0.923 ± 0.062
GGAGACGUACUAUACAACCUACUACCUCA	1.67 ± 0.12
GGAGACCUAUGAUAUGUACCGACUACCUCA	< 0.0001
GGAGACCUUACAAUACAACCUACUAGCUCA	0.157 ± 0.029
CCUCUGGAUACUAUACAAGCUUCUACCUCA	0.196 ± 0.019
GGUCUGGAUACUAGACAACCUACUACCUCA	1.6 ± 0.087
GGAGACCUUACUAUACAACCUACAACCACA	0.265 ± 0.026
GGAGUCGAUACUAUACAACCUUCUACCUCA	0.424 ± 0.029
GGAGUGGAUACUAUAUCAACCUACUACCUCA	0.333 ± 0.064
GGAGACGAUACAAUACAACCUACAACCUCA	0.769 ± 0.053
GGAGACCUAUGUAUAGAACCUACUACCACA	0.00883 ± 0.0027
GGUCUGGAUACUUUACAACCUAGUACCUCA	0.22 ± 0.036
GGAGACCUUACUAUACAAACUACUACCUCA	0.725 ± 0.044

Sequence	pre-steady-state target cleavage rate
GGAGUGGAUACUAUACAACCUACUACCAGA	0.0592 ± 0.013
GGAGACGAUACUUUACAACGUACUACCUCA	0.761 ± 0.049
GGAGUGGAUACUAUACAACCUACUACCUA	0.47 ± 0.075
GGACUGGAUACUAUACAACCAACUACGUCA	0.0713 ± 0.0092
GGAGACCUUACUAUACAACCUACUGACCUCA	0.59 ± 0.041
GGAGACCUUACUAUACAACCUACUUACCUCA	1.36 ± 0.11
GGAGACCUAUGUAUACAACCUUCUACCACA	0.00658 ± 0.0021
GGAGACGAUACUAUACAAGCUACUAGCUCA	0.343 ± 0.053
GCACUGCAUACUAUACAACCUACUACCUCA	1.75 ± 0.11
GGAGACCUUACUAUAGUACCUACUACCUCA	0.185 ± 0.029
CCUCGUGGAUACUAUACAACCUACUACCUCA	2.17 ± 0.16
GGUGUGGAUACUAUACAACCUACUUCCUCA	0.0115 ± 0.0039
GGACUGGAUACUAUGACAACCUACUACCUCA	1.6 ± 0.14
GGAGACCUUACUAUACAACCUACUAACUCA	1.01 ± 0.06
GGAGACCUAUCUAUACAACCCACUACCUCA	0.267 ± 0.022
GGAGUGGUUACUAUACAACCUAGUACCUCA	0.371 ± 0.05
GGAGACCUAUCUAUAGAACCUACAACCUCA	0.012 ± 0.0032
GGACUGGAUACUAUACACCUACUACCUCA	0.233 ± 0.035
GGAGACGUUACUAUACAACCUACUACCUCA	1.62 ± 0.096
GGUCUGGAACUAUACAACCUACUACCUCA	1.59 ± 0.087

— the supplement of paper PMC10338343
